Read counts are not given, so values of variants with three or more changes are uncertain.
B1: LINE1-mini (parent)
chain: GGCAGAGCUCAACACAGCGUGGCAAAGUGGCUGUGGCUAGACUGCC

Variants of: B1
Test: self-cleavage, relative activity (ratio to wild type); higher = more cleavage; in vitro, sequencing; the parent is a self-cleaving ribozyme
Variant GGCAGAGAUCCACACAGCGUGGCAAAGUGGCUGUGUCUAGACUGCC [C8A A11C G36U] has a self-cleavage of 0.04. Variant GGUAGAUCUCAACCCAUCGUGGCAAAGAGGCUGUGGCUAUAGUGCC [C3U G7U A14C G17U U28A G40U C42G] has a self-cleavage of 0.05. Work on GGCAGAGCUCAACACAGCGUGGCAAGGUCGCUGUGGCUAGCCUGCC [A26G G29C A41C] yielded a self-cleavage of 0.03. GGCAGAGCUUCACACAGCGUGGCAAAGUGCCUGUGGCUAGACUGCC [C10U A11C G30C] gave a self-cleavage of 0.02. For GGCAGCGCUAAACACAGCUUGGCAAAGUGUCUGUGGCUACACUGCC [A6C C10A G19U G30U G40C], the self-cleavage was 0.03. Variant GCCAGAGCUCAGCACAGCGUGGCAAAGUGGCUGUGUCUAGACUACC [G2C A12G G36U G44A] has a self-cleavage of 0.03. With AGCAGAGCUCAACACAGCGUGGCAAAGUGGCUGAGGCUAGACAGCC [G1A U34A U43A] the self-cleavage was 0.05. Work on GGCAGAGCUGAACACAGCGUGGCAAAGUGGCUGUGGCUCUACUGCC [C10G A39C G40U] yielded a self-cleavage of 0.01. GGCAGAGCUCAAGACAGCGUGGCAAAGGAGCUUUGGUUAGACUGCC [C13G U28G G29A G33U C37U] gave a self-cleavage of 0.01. GGCAGAGCGCAUUACAGCGUGGCAAAGUGGCUGUGGCUAGACUGCC [U9G A12U C13U] showed a self-cleavage of 0.08. GUCAGAGCUCAACACAGCGAGCCAAAGUGGCUGUGGCUAGACUGCC [G2U U20A G22C] showed a self-cleavage of 0.08. Variant GGCAGAGCUAAACACAGCGUGGCAAAGUGGCUGAGACUAGACUGCC [C10A U34A G36A] has a self-cleavage of 0.01. GGAAAAGCGCAACACAGCAUGGCAAAGUGGCUGUGGCUAGACUGCC [C3A G5A U9G G19A] gave a self-cleavage of 0.98. For GGAAGAGUUCAACACAGCGUGUCAAAGUGGCUGUGGCUAGACUGCC [C3A C8U G22U], the self-cleavage was 0.39. For GGCAGAGUUCAACACAGCGUGGCAAAGUGGCUGUUGCUAGAGUGCC [C8U G35U C42G], the self-cleavage was 0.02. GGUAGAGCUCAACACAGCGUGGCAAAGUGCCUAUGGCUAGACUGCC [C3U G30C G33A] showed a self-cleavage of 0.07. Variant AGCAGAGCUCAACCCAGCGUGGCAAAGUGGCUGUAGCUAGACUGCC [G1A A14C G35A] has a self-cleavage of 0.01. Variant GGAAGAGCGCAACACAGUGUGGCAACGUGGCUGUGGCUAGAUUGCC [C3A U9G C18U A26C C42U] has a self-cleavage of 0.92. In the case of GGGAGAGCUCUGCACAGCGUGGCAAAGUGGCUGUGGCUAGACUGCC [C3G A11U A12G], the self-cleavage is reported as 0.06. For GAAAGAGCUCACCUCAGCGUGGCAAAGUGGCUGUGGCUAGACUGCC [G2A C3A A12C A14U], the self-cleavage was 0.13. With GGCAGAGCUCAGCACAGCGCGGCAACUUGCCUGUGUCUAGACUGCU [A12G U20C A26C G27U G30C G36U C46U] the self-cleavage was 0.02. In the case of GGCAAAGCUCCACACAGCGUGGCAAAGUGGCUGUGGUUAAACUGGC [G5A A11C C37U G40A C45G], the self-cleavage is reported as 0. With GGCAGAGCUCAACUCACCGUGGCAAAGUGGCUGUGGCGCGACUGCC [A14U G17C U38G A39C] the self-cleavage was 0.06. In the case of GGCAGGGCUCCACACAGCUUGGCACAGUGGCUGUGGCUAGACUGCC [A6G A11C G19U A25C], the self-cleavage is reported as 0.03. GGCAGAGCUCAACACAGCGUGGCAAAGAGGCUGUGGCUUGACUGUC [U28A A39U C45U] gave a self-cleavage of 0.08. With GGCAUAGCUCAAGAUAGCGUGGCAAAGUGGCUGUGGCUAGACUGCC [G5U C13G C15U] the self-cleavage was 0.02. GGCAGAGGUCAACACAGUGUGGGAAAGUGCCUGUGGCUAGACUGGC [C8G C18U C23G G30C C45G] gave a self-cleavage of 0.02. GGCAGAGCUCACUACAGCGUGGCUAAGUGGCUGUGGCUAGACUACC [A12C C13U A24U G44A] gave a self-cleavage of 0. GGCAUAUCUCAACACAGCGUGGCAAAGUGUCUGUGGCUAGACUGCC [G5U G7U G30U] showed a self-cleavage of 0.18. GGCAGAGGUCAACACAGCGUGGCAACGUGGCUGUGGCCAGACUGCC [C8G A26C U38C] showed a self-cleavage of 0.01. GGCAGAGCGCAACACCGCGUGGCGAAGUGGCUGUAGCUGGACUGCC [U9G A16C A24G G35A A39G] showed a self-cleavage of 0.03. GGCAGAGCUCAGCACAGCGUGGCCAGGUGGCUGUGGAUAGACUGAC [A12G A24C A26G C37A C45A] gave a self-cleavage of 0.01. In the case of GGCACAGCUCAACCCGGCGUGGUAAAGUGGCUGUGGCUAGACUGCC [G5C A14C A16G C23U], the self-cleavage is reported as 0.01. Work on GGCAGAGUUCAACACAGCGUGGCGAAGUGGCUGUGGCUAGACUUCC [C8U A24G G44U] yielded a self-cleavage of 0.03. Work on GGCACAGCUCAACGCAUCGUGGCAAAGUGGCUGUGGCUAGACUGAC [G5C A14G G17U C45A] yielded a self-cleavage of 0.03. With GGCAGAGCUCGACACAACGUGGCAAAGUGGCUGUGGCUAGACUACC [A11G G17A G44A] the self-cleavage was 0.04. GGCAUAGCUCAUCACAGCGUGGCAAAGGGGCUGUCGCUAGACUGCC [G5U A12U U28G G35C] gave a self-cleavage of 0.03. Work on GGAAGAGUUCAACACAGAGUGUCAAAGUGGCUGUGGCUAGACUGCC [C3A C8U C18A G22U] yielded a self-cleavage of 1.28. In the case of GGCAGAGGUCAAUACAGCGUCGCAAAUUGGCAGUAGCUAGACUGCC [C8G C13U G21C G27U U32A G35A], the self-cleavage is reported as 0.05. For GGCAGAGCUCAACACAGCGGGGCAUAGUCGCUGUGGCUAGACUGCC [U20G A25U G29C], the self-cleavage was 0.15. Variant GGCAGAGCUCAACACGGCGUGACAAAGUGGCAGUGGCUAGGCUGAC [A16G G22A U32A A41G C45A] has a self-cleavage of 0.04. GGCAGAGCUUAAAACAGCUUGGCAAAGUGGCUGUGGCUAGACUGCC [C10U C13A G19U] showed a self-cleavage of 0.02. In the case of GGCGGAGCUCAACACAGCGUGGCAAAGUGGUUGUGGGUAGAAUGCC [A4G C31U C37G C42A], the self-cleavage is reported as 0.1. GGCAGAGCUCAACACAGCGAGGCGAAGUGGCUGUGGCUAGACUACC [U20A A24G G44A] gave a self-cleavage of 0.09. Variant GGCAGAUGUCAACACAGCGUGGCAAAGCGGCUGUUGCUAGUCUGCC [G7U C8G U28C G35U A41U] has a self-cleavage of 0.19. For GGCAGAGCUUAACACAGUGUGGCAAGGUGGCUGUGGCUAGACUGCC [C10U C18U A26G], the self-cleavage was 0.53. GGCAGAGCAGAACGCAGCGUGGCAAAGUGGCUGUGGCUAGACUGCC [U9A C10G A14G] gave a self-cleavage of 0.03. For CGCAGAGCUCAACACAGCGUGGCAAAGUGGCUGUGGUUAGACUGCG [G1C C37U C46G], the self-cleavage was 0.01. AGCAGAGCUCAUCACAGCGUUGCAAAGUGGCUGUGGCCAGACUGUC [G1A A12U G21U U38C C45U] gave a self-cleavage of 0.16. In the case of GGAAGAGCUCAACACAGAGUGGCAACGUGGUUGUGGCUAGAAUGCC [C3A C18A A26C C31U C42A], the self-cleavage is reported as 0.03. For GGUAGAGCUCCACACAGCGUGGCAAAGUGGCUGUGGCUAAUCGGAC [C3U A11C G40A A41U U43G C45A], the self-cleavage was 0.01. For GGCAGAGCUCAACACAGCGAGGCAAAGUGGCUGCGGCUUGACUGGC [U20A U34C A39U C45G], the self-cleavage was 0.01. In the case of GGCUUAGCUCAACACAGCGUGGCAAAGUGGCUGUGGCUAGUCUGCC [A4U G5U A41U], the self-cleavage is reported as 0.09. Variant GGCAGAGCUCAACACAGAGUGACAAAUUGGCUGUGACUAGACUGCC [C18A G22A G27U G36A] has a self-cleavage of 0.01. GGCAGAGCUCAACACGGCGUGGCAAAGUGCCUGUGGCUAGACUGCA [A16G G30C C46A] gave a self-cleavage of 0.04. With GGCAGAGCUCAACACAUCGUAGCAAUGUGCCUGUGGCUAGACUGCC [G17U G21A A26U G30C] the self-cleavage was 0.08.

Reference: the RNAGym collection of RNA variant scans (doi:10.7554/elife.90254)
